According to patent publication US20210275686A1, “BINDER/ACTIVE AGENT CONJUGATES DIRECTED AGAINST CXCR5, HAVING ENZYMATICALLY CLEAVABLE LINKERS AND IMPROVED ACTIVITY PROFILE” (BAYER AKTIENGESELLSCHAFT, priority 2018, published 2021):

B1: TPP-14495: anti-CXCR5 antibody, heavy chain SEQ ID NO: 9, light chain SEQ ID NO: 10 (antibody)
heavy: EVQLLESGGGLVQPGGSLRLSCAASGFTFSNYWMSWVRQAPGKGLEWVSAISGSGGSTRYADSVKGRFTISRDNSKNTLYLQMNSLRAEDTAVYYCTTQRRELGATNWGQGTLVTVSS[letters of human IgG1 constant region left out]
light: QSVLTQPPSASGTPGQRVTISCTGSSSNIGAGYVVHWYQQLPGTAPKLLIYSNNQRPSGVPDRFSGSKSGTSASLAISGLRSEDEADYYCQSYDSSLSGVVFGGGTKLTVLGQPKAAPSVTLFPPSSEELQANKATLVCLISDFYPGAVTVAWKADSSPVKAGVETTTPSKQSNNKYAASSYLSLTPEQWKSHRSYSCQVTHEGSTVEKTVAPTECS
B2: TPP-14499: anti-CXCR5 antibody, heavy chain SEQ ID NO: 19, light chain SEQ ID NO: 20 (antibody)
heavy: EVQLLESGGGLVQPGGSLRLSCAASGFTFSNYWGSWVRQAPGKGLEWVSAISGSGGSTYYADSVKGRFTISRDNSKNTLYLQMNSLRAEDTAVYYCTVLRRELGATNWGQGTLVTVSS[letters of human IgG1 constant region left out]
light: QSVLTQPPSASGTPGQRVTISCTGSSSNIGAGYVVHWYQQLPGTAPKLLIYSNNQRPSGVPDRFSGSKSGTSASLAISGLRSEDEADYYCQSYDSSLSGVVFGGGTKLTVLGQPKAAPSVTLFPPSSEELQANKATLVCLISDFYPGAVTVAWKADSSPVKAGVETTTPSKQSNNKYAASSYLSLTPEQWKSHRSYSCQVTHEGSTVEKTVAPTECS
B3: TPP-14505: anti-CXCR5 antibody, heavy chain SEQ ID NO: 29, light chain SEQ ID NO: 30 (antibody)
heavy: EVQLLESGGGLVQPGGSLRLSCAASGFTFSNNWMSWVRQAPGKGLEWVSAISGSGGSTYYADSVKGRFTISRDNSKNTLYLQMNSLRAEDTAVYYCNVQRRELGATNWGQGTLVTVSS[letters of human IgG1 constant region left out]
light: QSVLTQPPSASGTPGQRVTISCTGSSSNIGAGYVVHWYQQLPGTAPKLLIYSNNQRPSGVPDRFSGSKSGTSASLAISGLRSEDEADYYCQSYDSSLSGVVFGGGTKLTVLGQPKAAPSVTLFPPSSEELQANKATLVCLISDFYPGAVTVAWKADSSPVKAGVETTTPSKQSNNKYAASSYLSLTPEQWKSHRSYSCQVTHEGSTVEKTVAPTECS
B4: TPP-14509: anti-CXCR5 antibody, heavy chain SEQ ID NO: 39, light chain SEQ ID NO: 40 (antibody)
heavy: EVQLLESGGGLVQPGGSLRLSCAASGFTFSNYWMSWVRQAPGKGLEWVSAISGSGGSTYYADSVKGRFTISRDNSKNTLYLQMNSLRAEDTAVYYCTVQRRELGATNWGQGTLVTVSS[letters of human IgG1 constant region left out]
light: QSVLTQPPSASGTPGQRVTISCTGSSSNIGAGYVVHWYQQLPGTAPKLLIYSNNQRPSGVPDRFSGSKSGTSASLAISGLRSEDEADYYCQSYDSSLSGVVFGGGTKLTVLGQPKAAPSVTLFPPSSEELQANKATLVCLISDFYPGAVTVAWKADSSPVKAGVETTTPSKQSNNKYAASSYLSLTPEQWKSHRSYSCQVTHEGSTVEKTVAPTECS
B5: TPP-14511: anti-CXCR5 antibody, heavy chain SEQ ID NO: 49, light chain SEQ ID NO: 50 (antibody)
heavy: EVQLLESGGGLVQPGGSLRLSCAASGFTFSNYWMSWVRQAPGKGLEWVSAISGSGGTTYYADSVKGRFTISRDNSKNTLYLQMNSLRAEDTAVYYCTTQRRELGATNWGQGTLVTVSS[letters of human IgG1 constant region left out]
light: QSVLTQPPSASGTPGQRVTISCTGSSSNIGAGYVVHWYQQLPGTAPKLLIYSNNQRPSGVPDRFSGSKSGTSASLAISGLRSEDEADYYCQSYDSSLSGVVFGGGTKLTVLGQPKAAPSVTLFPPSSEELQANKATLVCLISDFYPGAVTVAWKADSSPVKAGVETTTPSKQSNNKYAASSYLSLTPEQWKSHRSYSCQVTHEGSTVEKTVAPTECS
B6: TPP-14514: anti-CXCR5 antibody, heavy chain SEQ ID NO: 59, light chain SEQ ID NO: 60 (antibody)
heavy: EVQLLESGGGLVQPGGSLRLSCAASGFTFSNNWMSWVRQAPGKGLEWVSAISGSGGSTYYADSVKGRFTISRDNSKNTLYLQMNSLRAEDTAVYYCTVQRRELGATNWGQGTLVTVSS[letters of human IgG1 constant region left out]
light: QSVLTQPPSASGTPGQRVTISCTGSSSNIGAGYVVHWYQQLPGTAPKLLIYSNNQRPSGVPDRFSGSKSGTSASLAISGLRSEDEADYYCQSYDSSLSGVVFGGGTKLTVLGQPKAAPSVTLFPPSSEELQANKATLVCLISDFYPGAVTVAWKADSSPVKAGVETTTPSKQSNNKYAASSYLSLTPEQWKSHRSYSCQVTHEGSTVEKTVAPTECS

Tests used:
[1] = test system: moderately CXCR5-expressing SU-DHL6 cell line; assay: FACS-based internalization assay, SU-DHL-6; format: cell-based, human; conditions: 10 μg/ml, 37° C.
From the text: SU-DHL-6: human B cell lymphoma cells (B cell non-Hodgkin, described as diffuse, mixed small and large cell type; cell line) ATCC-CRL-2959, standard medium: RPMI-1640 High Glucose (ATCC 30-2001) with L-glutamine, Hepes, sodium pyruvate+10% FCS (FBS Gibco 10500-064 heat inactivated, EU approved), CXCR5 positive.
(§1) Internalization is the key process for enabling specific and efficient preparation of the cytotoxic payload in antigen-expressing cancer cells by antibody-drug conjugates (ADC). This process is carried out by fluorescent labeling of specific antibodies and an isotype control antibody. For this purpose, first the conjugation of the fluorescent dye to lysine of the antibody was performed. The conjugation was conducted with a two-fold to 10-fold molar excess of CypHer 5E mono NHS ester (Batch 357392, GE Healthcare) at pH 8.3. After coupling was completed, the reaction mixture was purified by gel chromatography (Zeba Spin Desalting Columns, 40K, Thermo Scientific, No. 87768; elution buffer: DULBECCO'S PBS, Sima-Aldrich, No. D8537), to eliminate excess dye and adjust the pH. The protein solution was concentrated using VIVASPIN 500 columns (Sartorius stedim biotec). The determination of the dye load of the antibody was performed by spectrophotometric analysis (NanoDrop) followed by calculation (D/P=Adye[…]protein:(A280−0.16Adye)[…]dye).
(§2) The antigen to be investigated is expressed by hematopoietic suspension cells, and therefore the internalization was examined in a FACS-based internalization assay.
(§3) Cells with various target expression levels were investigated. The cells (5×10^4/well) were seeded in a 96-MTP (Greiner bio-one, CELLSTAR, 650 180, U-bottom) in 100 μL total volume. After addition of the target-specific antibody at a final concentration of 10 μg/ml, the reaction mixtures were incubated at 37° C. for different lengths of time (1 h, 2 h, 6 h, triplicate determination). The isotype check was handled under identical conditions. A parallel reaction mixture was kept constantly and incubated at 4° C. (negative control). The FACS analysis was performed using the Guava flow cytometer (Millipore). The kinetic evaluation was done by measuring the fluorescence intensity, and the assessment was conducted using the guavaSoft 2.6 software (Millipore). A significant and specific internalization was detected in various cells for the target-specific antibody described here.
(§4) The observed fluorescence intensities (MFI) for the CXCR5 high-expressing Rec-1 cell line and the moderately CXCR5-expressing SU-DHL6 cell line are summarized in Table 3.

[2] = test system: CXCR5 high-expressing Rec-1 cell line; assay: FACS-based internalization assay, Rec-1; format: cell-based, human; conditions: 10 μg/ml, 37° C.
Experimental: as §1, §2, §3, §4

Row | Molecule | internalization on SU-DHL-6 cells in contrast to TPP-10063 and 40C01 (in words) [1] | internalization on Rec-1 cells in contrast to TPP-10063 and 40C01 (in words) [2]
1 | B1 | no improvement | improved
2 | B2 | improved | improved
3 | B3 | improved | improved
4 | B4 | improved | improved
5 | B5 | improved | improved
6 | B6 | improved | improved
